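Assay format: 96-well plates, 48-hour exposure. The concentration for 50% growth inhibition is given as GI50.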 Some entries of the source have several records that differ or are many. This list holds those alone. There may be further records. Records of one sample usually come from different ranges of test concentrations, which the source does not state; some values may only mark the edge of a range.
Test system: MDA-MB-468 breast
Experiment: growth of human tumour cells (NCI), 48 h

Q: With `CCc1nc(N)nc(N)c1C#CC(C)c1ccc(-c2ccncc2)cc1Cl` (stereo unspecified) as the compound, how does the GI50 read?
A: Its GI50 is 23.2 nM and 461 nM.

— PubChem BioAssay (NCI)
